Screen size: about 310,000 compounds; about 14,000 (4.5%) showed an effect of 50% or more. The effect is printed as a negative number. Some of the results follow.
Molecular target: human ether-à-go-go-related gene (hERG) potassium channel (human, UniProt Q12809)
Assay: primary screen, population patch clamp on CHO cells stably expressing hERG
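Further: peak tail current of the secondary pulse compared with the same well before compound.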

Chain of human ether-à-go-go-related gene (hERG) potassium channel (Q12809 whole entry, looked up): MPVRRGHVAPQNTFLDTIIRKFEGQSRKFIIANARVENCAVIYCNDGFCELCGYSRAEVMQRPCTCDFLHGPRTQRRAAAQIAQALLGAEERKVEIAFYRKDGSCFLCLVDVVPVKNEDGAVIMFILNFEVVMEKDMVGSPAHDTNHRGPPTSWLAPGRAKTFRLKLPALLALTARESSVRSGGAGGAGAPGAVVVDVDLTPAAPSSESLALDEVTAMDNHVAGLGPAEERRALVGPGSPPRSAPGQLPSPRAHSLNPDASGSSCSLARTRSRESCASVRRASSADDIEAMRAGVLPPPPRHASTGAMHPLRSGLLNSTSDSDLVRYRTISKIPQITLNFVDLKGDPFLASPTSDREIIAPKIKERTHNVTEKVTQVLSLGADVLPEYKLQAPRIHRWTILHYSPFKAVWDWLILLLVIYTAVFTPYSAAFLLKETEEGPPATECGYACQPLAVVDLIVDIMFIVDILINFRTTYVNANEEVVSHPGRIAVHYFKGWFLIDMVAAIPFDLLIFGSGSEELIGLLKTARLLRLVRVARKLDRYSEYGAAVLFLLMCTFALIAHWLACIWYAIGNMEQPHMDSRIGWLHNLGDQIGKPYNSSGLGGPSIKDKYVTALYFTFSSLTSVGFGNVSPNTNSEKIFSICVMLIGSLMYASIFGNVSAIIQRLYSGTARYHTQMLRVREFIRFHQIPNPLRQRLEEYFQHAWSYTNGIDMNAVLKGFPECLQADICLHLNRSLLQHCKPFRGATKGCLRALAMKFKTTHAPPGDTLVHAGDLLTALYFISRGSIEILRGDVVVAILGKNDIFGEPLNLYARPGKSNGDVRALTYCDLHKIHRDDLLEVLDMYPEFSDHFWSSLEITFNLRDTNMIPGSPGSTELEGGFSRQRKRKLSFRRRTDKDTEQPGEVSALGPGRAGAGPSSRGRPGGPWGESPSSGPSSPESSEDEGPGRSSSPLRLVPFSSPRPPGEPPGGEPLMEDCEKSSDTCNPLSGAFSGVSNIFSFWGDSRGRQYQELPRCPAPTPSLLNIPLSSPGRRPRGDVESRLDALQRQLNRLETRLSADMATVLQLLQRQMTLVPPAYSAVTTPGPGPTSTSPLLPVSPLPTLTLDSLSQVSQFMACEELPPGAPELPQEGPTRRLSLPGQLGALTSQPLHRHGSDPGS

SMILES | hERG current change (%, negative = inhibition) at 10uM [%]
COc1ccccc1N1CCN(C(=O)c2ccc3nc[nH]c3c2)CC1 | 10.5
CC(=O)C1C(c2ccc(O)cc2)NC(=O)NC1(O)C(F)(F)F (centres unmarked) | 16.2
CC(=O)Nc1ccc2c(c1)nc(CN1CCCC1)n2C | -7.28
COc1cccc(NC(=O)CSc2nc3ccccc3nc2N2CCOCC2)c1 | -0.0485
O=[N+]([O-])c1cccc2ccc(/C=C/c3ccc(F)cc3)nc12 | 3.12
CCc1ccc(C2C(C(C)=O)=C(C(=O)OC)Nc3nnnn32)cc1 (centres unmarked) | 8
CCOC(=O)CC1C(=O)NCCN1Cc1ccc(OC)c(OC)c1 (centres unmarked) | 9.82
CN(CCCC(=O)Nc1ccccc1)S(=O)(=O)c1ccc(Cl)cc1 | -47.9
Cc1cc(C)c(S(=O)(=O)Nc2ccccc2C(=O)N2CCCC2)c(C)c1 | 7.52
COCC(=O)NC1CCN(CC(=O)Nc2ccc(OC)cc2[N+](=O)[O-])CC1 | -2.46
COc1ccc(C(=O)NNC(=O)CSc2nnc(COc3ccccc3OC)n2C)cc1 | 6.07
CN(C)S(=O)(=O)c1cc(S(=O)(=O)N(C)C)c(Cl)cc1N | -8.31
CCN(CC)CCNC(=O)Cn1nc(Cc2ccccc2)c2ccccc2c1=O | -49.4
Cn1nnc(NC(=O)c2ccco2)n1 | -33.7
CSc1nc(N)c(N=Nc2ccc([As](=O)(O)O)cc2)c(=O)[nH]1 | 9.11
Cc1cc2n(n1)C(c1c[nH]c3ccccc13)Nc1ccccc1-2 (centres unmarked) | 7.43
O=C(CN1CCN(S(=O)(=O)c2ccc(F)cc2)CC1)Nc1ccc(Cl)c(C(F)(F)F)c1 | 9.48
COCCNc1nc2c(c(=O)n(C)c(=O)n2C)n1Cc1cccc(C(F)(F)F)c1 | -6.35
COc1cc([N+](=O)[O-])cc(CN2CCCCC2)c1O | -1.2
O=C(CN(C(=O)CSc1nnc(COc2ccccc2)o1)c1ccc(F)cc1)NC1CCCC1 | 4.59
CCOC(=O)N1CCN(S(=O)(=O)c2ccc(C(=O)Nc3ccc(F)cc3F)cc2)CC1 | 5.94
CC(=O)NCCC(=O)Nc1cc(S(=O)(=O)N2CCCCC2)ccc1N1CCCCC1 | -5.37
CC1CC(C)CN(c2oc(-c3ccccc3Cl)nc2C#N)C1 (centres unmarked) | 8.71

SMILES | hERG current change (%, negative = inhibition) at 10uM [%]
O=C(COc1ccccc1N1C(=O)c2ccccc2C1=O)c1ccc(Cl)cc1 | -5.55
O=C1/C(=C/c2ccco2)N=C(N2CCCCC2)N1c1ccccc1 | 0.89
O=C(NCCc1c[nH]c2ccccc12)c1cccnc1 | 19.7
Cc1ccc(OCC2Cn3c(nc4c3c(=O)[nH]c(=O)n4C)O2)cc1 (centres unmarked) | -0.968
CC(C)(C)C(=O)N1CCN(c2ccc(NC(=O)c3ccc4c(c3)OCCO4)cc2)CC1 | -8.69
O=C(Nc1ccn(Cc2ccccc2F)n1)c1ccc(COc2ccccc2Cl)cc1 | -13.6
COc1cc(/C(C)=N/NC(=S)NC(C)C)cc(OC)c1OC | 6.16
Cc1ccc(S(=O)(=O)N2CCN(C(=O)CNC(=O)c3sc4ccccc4c3Cl)CC2)cc1 | -1.23
CCCCOc1ccc(-c2nnn(CC(=O)NCc3ccco3)n2)cc1 | 10.3
CCNC(=O)CN(c1ccc(C)cc1)S(=O)(=O)c1ccc(SC)cc1 | -19
C=CCN(c1ccccc1OC)S(=O)(=O)c1cccc(C(=O)Nc2nnc(C3CC3)s2)c1 | 6.56
CN(C)C1(CNC(=O)c2ccc(NS(=O)(=O)c3ccc(Cl)c(Cl)c3)cc2)CCCCC1 | -74.1
N=C1c2ccccc2CN1c1cccc([N+](=O)[O-])c1 | -27.7
COc1ccc(NC(=O)COc2ccc(CNCCCN3CCOCC3)cc2OC)cc1.Cl | 0.185
Fc1cccc(C2CCCCN2Cc2nc(C3CC3)no2)c1 (centres unmarked) | 13.3
COCc1cc(=O)[nH]c2cc(NC(=O)C3CC3)c(C)cc12 | 18.7
Nc1cncc(C(=O)O)c1 [26671297] | 4.06
Cc1nc(C(=O)Nc2cc(F)cc(Cl)c2)sc1C1(C)CC(c2ccccc2)=NO1 (centres unmarked) | 1.4
O=C(CSc1nnc(Nc2ccccc2F)s1)NC(=O)CN1CCCC1=O | 2.75
Cc1nnc(SCC(=O)Nc2sccc2C(N)=O)s1 | -4.23
CC(C)C(=O)Nc1ccc(C(=O)NNC(=O)NC2CCCCC2)cc1 | 19.2
CC(=O)Oc1ccc(Cl)cc1/C=C/c1cc(OC(C)=O)c2ccccc2n1 | 18.4
Cc1ccccc1NS(=O)(=O)CCCCC(Cl)(Cl)Cl | 17.5

SMILES | hERG current change (%, negative = inhibition) at 10uM [%]
CCC(C)(C)n1nnnc1C(c1ccc(OC)cc1)N1CCN(C(=O)c2ccco2)CC1 (centres unmarked) | -41.6
Cc1cc(C)n(-c2ccc(C(=O)OCc3ccccc3)cc2)n1 | 21.2
CSc1nc(N)nc(N(C)C)n1 | 11
COc1ccc(NC(=O)c2cc(S(=O)(=O)N(C)C)ccc2N2CCCC2)cc1Cl | 12.7
CCCCSc1nc(O)c(C2OC(=O)c3c2ccc(OC)c3OC)c(=O)n1C (centres unmarked) | -4.31
COc1ccc(NC(=O)Cn2ccc3c(OC)cccc3c2=O)cc1 | 9.88
CCOC(=O)c1c(C)[nH]c(C(=O)NCc2ccco2)c1C | 2.76
CC1(C)Cc2nc(-c3ccccc3)nc(SCC(O)CO)c2CO1 (centres unmarked) | -15.8
OCC1(CCc2ccccc2)CCN(Cc2cc(F)ccc2-n2cccn2)CC1 | -78.1
C=CCOc1ccc(/C=N/NC(=O)CN2CCCCC2)cc1OC | -61
COc1ccc(CN(C(=O)/C=C/c2ccco2)C2CCS(=O)(=O)C2)cc1 (centres unmarked) | 6.94
CC(C(=O)NC(N)=O)N1C(=O)NC(c2ccccc2)(c2ccccc2)C1=O (centres unmarked) | -14.9
CCOc1ccccc1Nc1nnc(SCC(=O)NC(Cc2c[nH]c3ccccc23)C(=O)O)s1 (centres unmarked) | 23.3
OCC1(CCCc2ccccc2)CCN(Cc2cnc(N3CCOCC3)s2)CC1 | -58.3
CN1CCN(c2ccccc2NC(=O)c2ccc(F)cc2)CC1 | -40.7
CCCCc1nc2ccccc2c(=O)n1-c1ccccc1O | 18
Cc1ccc2sc(-c3ccc(NC(=O)c4cc(-n5cnnc5)ccc4Cl)cc3)nc2c1 | 6.22
Cn1cc(C(=O)c2ccc(Cl)cc2Cl)cc1C=O | -15.4
Cc1c(NC(=O)CN2CCCc3ccccc32)c(=O)n(-c2ccccc2)n1C | -0.4
Cc1ccc2c(c1)C(=O)CC(O)(C(F)(F)F)O2 (centres unmarked) | 17.1
CCCn1nnc2c(=O)oc3ccccc3c21 | 3.77
CCOCC(=O)Nc1nnc(Cc2ccc(OC)cc2)s1 | 11.4
CC(Sc1ccc(Cl)cc1)C(=O)NCC(c1ccco1)N1CCCCC1 (centres unmarked) | -54.1

SMILES | hERG current change (%, negative = inhibition) at 10uM [%]
CCCC(=O)Nc1ccc(Cl)c(NC(=O)c2ccco2)c1 | -10.5
O=C1CCCN1CCC1CCCCN1Cc1nc(COc2ccccc2)no1 (centres unmarked) | 16.5
Cn1cccc1C(=O)NCc1ccc(S(N)(=O)=O)cc1 | 14
Cc1ccc(CN2C3CCCC2CC(NC(=O)c2ccc(F)cc2)C3)cc1 (centres unmarked) | -74.1
CC(=O)O/N=C/c1c(Cl)n(C)c2ccccc12 | -2.65
COc1ccc(OC)c(CN2C(=O)CCC2(C)C(=O)NC2CCCCCC2)c1 (centres unmarked) | -19.7
Cc1onc(-c2ccccc2)c1C(=O)Nc1nnc(N2CCCCCC2)s1 | -22.2
Cc1nnc(NC(=O)c2ccc3c(c2)C(=O)N(CC2CCCO2)C3=O)s1 (centres unmarked) | -16.2
CCn1cc(C(=O)NCc2ccc3c(c2)OCO3)c2cc(OC)c(OC)cc2c1=O | 2.11
NS(=O)(=O)c1ccc(NC(=O)CN2C(=O)C3C4C=CC(C4)C3C2=O)cc1 (centres unmarked) | 17.6
Cn1c(SCC(=O)NCc2cccs2)nnc1-c1cccs1 | -23.6
CCOc1ccc(CCNC(=O)CN(C)S(=O)(=O)c2cccs2)cc1OCC | 10.2
CCCCc1ccc(NC2=NCCCS2)cc1 | -35.9
Cn1c(N)c(C(=O)COC(=O)CC2CC3CCC2C3)c(=O)n(C)c1=O (centres unmarked) | -64.4
O=C(CSc1ccc2nc(-c3ccccc3)cn2n1)NCC1CCCO1 (centres unmarked) | -18
C=CCn1cc(/C=N/NC(=O)COc2cccc3cccnc23)c2ccccc21 | 9.18
CCn1c(O)c(N=Nc2ccc3ccccc3n2)c2ccccc21 | 3.85
CCOC(=O)N1CCN(Cc2ccccc2Cl)CC1 | 5.87
NC1=NC(=O)/C(=C/c2cn(CCC(=O)O)nc2-c2ccc(F)cc2)S1 | -1.99
COc1cccc(CNC(=O)CCNC(=O)C2CCN(S(=O)(=O)c3ccc(F)cc3)CC2)c1 | -10.2
